Test results from patent US7037678.

Assays:
[1] = molecular target: endogenous Claspin of Xenopus egg extract
endogenous Claspin of Xenopus egg extract, sequence (chain, as listed by the source): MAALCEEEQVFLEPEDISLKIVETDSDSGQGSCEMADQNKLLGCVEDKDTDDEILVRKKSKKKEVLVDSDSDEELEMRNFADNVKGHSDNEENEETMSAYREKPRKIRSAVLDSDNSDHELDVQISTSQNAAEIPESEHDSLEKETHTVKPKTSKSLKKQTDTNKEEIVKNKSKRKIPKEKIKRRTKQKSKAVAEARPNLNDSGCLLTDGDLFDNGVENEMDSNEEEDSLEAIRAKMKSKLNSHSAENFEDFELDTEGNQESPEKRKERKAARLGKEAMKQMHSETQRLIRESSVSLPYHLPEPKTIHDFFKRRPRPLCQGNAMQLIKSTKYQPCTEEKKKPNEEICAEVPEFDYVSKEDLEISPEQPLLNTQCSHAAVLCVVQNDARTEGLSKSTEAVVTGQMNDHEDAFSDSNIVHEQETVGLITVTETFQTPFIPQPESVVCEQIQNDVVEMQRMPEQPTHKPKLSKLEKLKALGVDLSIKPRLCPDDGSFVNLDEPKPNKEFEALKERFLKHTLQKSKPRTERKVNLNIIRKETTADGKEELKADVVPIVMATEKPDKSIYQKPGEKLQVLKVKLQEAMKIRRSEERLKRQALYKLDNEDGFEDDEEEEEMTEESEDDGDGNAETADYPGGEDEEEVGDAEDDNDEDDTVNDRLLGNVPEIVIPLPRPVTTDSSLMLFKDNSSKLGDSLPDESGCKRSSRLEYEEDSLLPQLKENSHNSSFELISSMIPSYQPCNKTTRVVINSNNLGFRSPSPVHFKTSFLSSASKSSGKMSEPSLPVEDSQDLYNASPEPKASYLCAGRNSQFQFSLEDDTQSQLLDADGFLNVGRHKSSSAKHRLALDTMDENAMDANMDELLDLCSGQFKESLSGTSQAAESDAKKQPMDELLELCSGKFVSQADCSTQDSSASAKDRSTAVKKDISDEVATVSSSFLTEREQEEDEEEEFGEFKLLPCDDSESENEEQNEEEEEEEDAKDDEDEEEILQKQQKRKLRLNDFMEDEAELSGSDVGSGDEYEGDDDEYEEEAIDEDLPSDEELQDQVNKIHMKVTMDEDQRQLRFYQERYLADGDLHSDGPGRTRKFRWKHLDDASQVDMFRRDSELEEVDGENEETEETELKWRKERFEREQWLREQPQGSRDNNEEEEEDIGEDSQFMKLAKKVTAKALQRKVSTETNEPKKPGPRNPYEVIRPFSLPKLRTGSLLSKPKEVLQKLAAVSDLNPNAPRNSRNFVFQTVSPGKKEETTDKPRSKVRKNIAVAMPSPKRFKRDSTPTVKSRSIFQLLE

His6-Claspin, sequence (chain, as listed by the source): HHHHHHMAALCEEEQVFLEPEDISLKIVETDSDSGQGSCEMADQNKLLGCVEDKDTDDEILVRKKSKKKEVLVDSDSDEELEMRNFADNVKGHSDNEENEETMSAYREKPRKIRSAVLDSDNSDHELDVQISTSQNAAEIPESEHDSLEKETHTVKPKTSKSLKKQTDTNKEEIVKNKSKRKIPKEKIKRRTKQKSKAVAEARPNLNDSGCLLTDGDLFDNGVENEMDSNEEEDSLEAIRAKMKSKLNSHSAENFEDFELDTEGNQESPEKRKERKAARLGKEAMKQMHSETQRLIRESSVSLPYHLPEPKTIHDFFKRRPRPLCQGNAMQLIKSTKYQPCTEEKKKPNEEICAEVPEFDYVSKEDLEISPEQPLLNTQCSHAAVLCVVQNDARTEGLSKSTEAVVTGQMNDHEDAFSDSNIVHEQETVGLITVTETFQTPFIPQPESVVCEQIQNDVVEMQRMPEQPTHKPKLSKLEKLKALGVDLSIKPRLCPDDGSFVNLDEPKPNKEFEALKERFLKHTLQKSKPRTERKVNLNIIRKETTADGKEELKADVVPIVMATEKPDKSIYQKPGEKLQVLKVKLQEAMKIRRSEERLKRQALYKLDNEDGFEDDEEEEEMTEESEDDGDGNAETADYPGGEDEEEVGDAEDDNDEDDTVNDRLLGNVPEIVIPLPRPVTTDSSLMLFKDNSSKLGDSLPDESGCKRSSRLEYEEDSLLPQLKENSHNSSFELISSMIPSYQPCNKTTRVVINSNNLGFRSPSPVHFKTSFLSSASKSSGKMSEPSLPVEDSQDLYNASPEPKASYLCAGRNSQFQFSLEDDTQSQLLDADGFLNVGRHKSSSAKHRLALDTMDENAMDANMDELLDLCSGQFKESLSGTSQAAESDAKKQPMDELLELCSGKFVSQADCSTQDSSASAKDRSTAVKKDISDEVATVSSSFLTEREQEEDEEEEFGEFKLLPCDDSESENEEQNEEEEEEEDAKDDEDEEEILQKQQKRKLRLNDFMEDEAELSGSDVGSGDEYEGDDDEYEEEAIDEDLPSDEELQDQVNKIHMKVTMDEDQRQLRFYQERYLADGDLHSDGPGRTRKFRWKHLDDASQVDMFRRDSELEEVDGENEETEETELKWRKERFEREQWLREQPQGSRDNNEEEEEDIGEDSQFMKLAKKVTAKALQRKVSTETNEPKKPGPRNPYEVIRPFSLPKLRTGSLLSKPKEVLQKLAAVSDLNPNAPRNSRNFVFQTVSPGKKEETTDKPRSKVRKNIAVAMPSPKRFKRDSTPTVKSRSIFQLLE

B1: Xchk1-WT-GST-His6 (protein)
chain: MAVPFVEDWDLVQTLGEGAYGEVQLAVNRKTEEAVAVKIVDMTRAADCPENIKKEICINRMLSHTNIVRFYGHRREGNIQYLFLEYCRGGELFDRIEPDVGMPEQDAQKFFQQLIAGVEYLHSIGITHRDIKPENLLLDERDQLKISDFGLATVFRHNGKERLLNKMCGTLPYVAPELIKSRAFHADPVDVWSCGIVLTAMLAGELPWDQPNEVCQEYCDWKEKNHYLTPWKKISATPLALLCKMLTENPQSRITIPDIKKDRWFTEIIKKGLKRSRVISGGSSDSSVLCKQIRSDIDISHFSHSEEKTALSSTQPEPRTALATWDSNSSYIDNLVQGKGISFSQPACPDNMLLNSQLIGTPGSSQNVWQRLVKRMTRFFTKVNAESSYSNLMDTCEKMGYVLKKSCANEVTLSTTDRRNNKLIFKVNLVEMEDRILLDFRLSKGDGLEFKRHFLKIKKKMDAVVAVQKVLPDTM[omitted - about 200 residues]
checkpoint-dependent phosphorylation of recombinant Xchk1 re-isolated from egg extract (His6-Claspin): the addition of recombinant His6-Claspin to Claspin-depleted extracts completely restored the phosphorylation of Xchk1 | checkpoint-dependent phosphorylation of recombinant Xchk1 re-isolated from egg extract [1]: The checkpoint-dependent phosphorylation of Xchk1 in Claspin-depleted extracts was almost completely abolished in comparison with mock-depleted extracts. | kinase activity of recombinant Xchk1 isolated from egg extract (substrate GST-Cdc25(254-316)-WT) [1]: recombinant Xchk1 was activated about 4-fold in extracts containing poly(dA)70-poly(dT)70. This activation was strongly reduced in Claspin-depleted extracts
